This is an account of results in ChEMBL document CHEMBL1201862, “PubChem BioAssay data set” (2004).

Molecules are shown by their SMILES. Values joined by “and” are separate entries in the source; they are usually repeats but may differ in a detail not shown here. Equal values may be shown once.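 Protocol summary: plate cells (96-well), add compound at 5 concentrations, incubate 48 h, interpolate endpoints linearly. GI50 is the concentration that inhibits growth by half.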 Active and inactive are the calls of the source. No stated cut-off is given here; in the data, active = GI50 up to about 1.1 µM and inactive = higher.

For the experiment, the system named is NCI-H322M. As to the kind of experiment: NCI tumour cell line growth inhibition, 48 h.
Regarding `Oc1cccc(Nc2cc(O)nc(O)n2)c1`, the GI50 is inactive: > 100 µM. For `O=C(CCCn1ccnc1[N+](=O)[O-])NCCn1cnc([N+](=O)[O-])c1`, the GI50 was inactive: > 100 µM. `O=c1c2ccccc2n2c(S)nnc2n1-c1ccccc1`: the GI50 was inactive: > 100 µM.

On to `COc1ccc2c(C)cc(C)nc2n1`, for which the GI50 was inactive: > 100 µM.

As to `CC1(C)SC2C(C(=O)O)N=C(Cc3ccccc3)N2C1C(=O)O` (stereo not given), the GI50 was inactive: 15.3 µM.

Take `O=C(Cc1ccccc1)Nn1c(-c2ccccc2)nc2ccccc2c1=O`: the GI50 was inactive: > 100 µM. To `CN(CC(=O)O)S(=O)(=O)c1ccc(F)cc1` belongs inactive: > 100 µM. On to `COC(=O)c1c(C(=O)OC)c2ccc(-c3ccc(Cl)cc3)nn2c1C(=O)c1ccc([N+](=O)[O-])cc1`, for which the GI50 was inactive: > 100 µM. `Cc1cc(=O)c2c(O)cc3c(c2o1)CC=C(COC1OC(COC2OC(CO)C(O)C(O)C2O)C(O)C(O)C1O)CO3` (stereo not given): the GI50 was inactive: > 100 µM. As for `CC[P+]1(c2ccccc2)CCCCC1`, the GI50 was inactive: > 100 µM. In the case of `CCCN(C(=O)c1c(Cl)nnc(Cl)c1C(=O)c1cc(Cl)nnc1Cl)c1cc(Cl)nnc1Cl` it was inactive: 13.7 µM. To `O=C(/C=C/c1ccccc1)CCN1CCN(CCC(=O)/C=C/c2ccccc2)CC1` belongs inactive: 26 µM; to `Cc1c(C(=O)O)n(C)c(=O)n(C)c1=O`, inactive: > 100 µM.

Consider `O=P(O)(CN1CCN(CP(=O)(O)c2ccccc2)CCN(CP(=O)(O)c2ccccc2)CC1)c1ccccc1`, for which the GI50 was inactive: > 100 µM. To `O=C(O)c1ccccc1/N=C/c1ccc(N(CCCl)CCCl)cc1` belongs inactive: > 100 µM. To `COc1c2c(cc3c1OCO3)[C@]13C=C[C@H](OC)C[C@H]1N(C2)CC3O` (stereo not given in full) belongs inactive: > 100 µM; to `COc1ccc(-n2c(N)c(C#N)c(C#N)c2-c2ccccc2)cc1`, inactive: > 100 µM. As to `Cc1nc2c(=O)[nH]c(=O)nc-2n(CCO)c1C`, the GI50 was inactive: > 100 µM.

In the case of `CN(O)C(=O)c1ccc(OCc2cccc(Cl)c2)cc1`, the GI50 is inactive: 21.1 µM. In the case of `Cc1cc(Cl)nc2nc(Cl)c(N)cc12` it was inactive: 12.1 µM; in that of `CCCCCCCCCCCCCC(=O)NCC(OCC)OCC`, inactive: > 100 µM; in that of `Nc1n[nH]c2nc3ccc(C(F)(F)F)cc3nc12`, inactive: 31.8 µM.

For `O=C(OCc1nc2ccc(Br)cc2c(=O)n1-c1ccccc1)c1ccccc1O`, the GI50 is inactive: > 100 µM. In the case of `O=C(CSCC(=O)N/N=C\c1cccc([N+](=O)[O-])c1)N/N=C\c1cccc([N+](=O)[O-])c1` it was inactive: 39.9 µM; in that of `C=C(C(=O)O)[C@@H]1C[C@@H]2O[C@H]1CC(C)=CCC/C(C)=C/CC[C@@]2(C)O`, inactive: > 100 µM; in that of `CC(=O)Nc1ccc(C(=O)NN2C(=O)C(Cl)C2c2ccc(O)cc2)cc1` (stereo not given), inactive: 65 µM. Turning to `O=C(O)c1ccc(N2C=[N+]3C(=Nc4ccccc43)C2)cc1`, the GI50 is inactive: > 100 µM.

`O=C(NCCC1([N+](=O)[O-])CCN(C(=O)c2ccccc2)CC1)c1ccccc1`: the GI50 was inactive: 84.7 µM. On to `COC1CC(Br)(C#N)C1` (stereo not given), for which the GI50 was inactive: > 100 µM. In the case of `Cc1ccc2nc3ccccc3c(C3C4C(=O)N(c5ccc(Br)cc5Cl)C(=O)C4ON3C(C(N)=O)c3ccccc3)c2c1` (stereo not given) it was inactive: > 25 µM. In the case of `Cc1c(N2C(=O)CS(=O)(=O)C2c2cccc(Oc3ccccc3)c2)c(=O)n(-c2ccccc2)n1C` (stereo not given) it was inactive: 22.2 µM. To `Cc1ccc(S(=O)(=O)SC/C=C\CSS(=O)(=O)c2ccc(C)cc2)cc1` belongs inactive: 52.4 µM. On to `COc1c(Sc2c(SCSc3cnc4ccccc4c3Sc3cnc4ccccc4c3OC)cnc3ccccc23)cnc2ccccc12`, for which the GI50 is inactive: > 100 µM. To `COc1ccc2c(-c3ccc(O)cc3)c(Oc3ccccc3)c(=O)oc2c1` belongs inactive: 5.92 µM.

As for `O=C(NCc1ccc(Cl)c(Cl)c1)c1nc2ccccc2nc1NCc1ccc(Cl)c(Cl)c1`, the GI50 is inactive: > 100 µM. To `COC(=O)C(=O)C(C(=O)C(=O)Nc1cc(Cl)c(Cl)cc1Cl)c1nc2ccc([N+](=O)[O-])cc2nc1O` (stereo not given) belongs inactive: > 100 µM; to `O=C(Cc1ccccc1)N/N=C(/c1nc2ccc([N+](=O)[O-])cc2nc1O)C(O)c1ccc(C(O)/C(=N/NC(=O)Cc2ccccc2)c2nc3ccc([N+](=O)[O-])cc3nc2O)cc1` (stereo not given), inactive: > 100 µM; to `CCOC(=O)C1=C(C)C2C3C(=O)NC(=O)C3C1(C)C1C(=O)NC(=O)C21` (stereo not given), inactive: > 100 µM. In the case of `c1ccc(SC(Sc2ccccc2)=C2CCC2)cc1` it was inactive: > 100 µM; in that of `CC1CNC(c2ccc(-c3nc(-c4ccc(C5=NC(C)CN5)cc4)nc(N(C)C)n3)cc2)=N1` (stereo not given), inactive: 1.29 µM. In the case of `CN(C)c1ccc(/C=C/c2sc3ccccc3[n+]2C)cc1` it was inactive: 11 µM and inactive: 12.9 µM; in that of `C#Cc1nc(N)c2ncn(C3OC(COS(N)(=O)=O)C(O)C3O)c2n1` (stereo not given), active: < 0.0144 µM; in that of `C[C@]12CC[C@@H]3c4ccc(OCC(=O)O)cc4CC[C@H]3[C@@H]1CCC2=O`, inactive: > 100 µM. For the molecule `COc1ccc(-c2cc(C(=O)Nc3cccc(C(F)(F)F)c3)nc(S)n2)cc1`, the GI50 is inactive: > 100 µM. `COc1cc(O)c2c(c1)C(=O)C=C(Cl)C2=O`: the GI50 is inactive: 52.4 µM. In the case of `N#C/C(=N\c1ccccc1N(C(=O)c1ccccc1)C(=O)c1ccccc1)c1ccccc1` it was inactive: 24 µM; in that of `Cc1ccc(S(=O)(=O)N/N=c2/sc3ccccc3n2C)cc1`, inactive: > 100 µM; in that of `COc1cccc2c1C(=O)c1c(O)c3c(c(O)c1C2=O)C[C@@](O)(C(C)=O)C[C@@H]3OC1OC(C)C(O)C(N)C1Br` (stereo not given in full), active: 0.231 µM. With `CCOC(=O)[C@@]1(C(C)=O)CC(C)=C(C)C[S@@+]1[O-]`, the GI50 is inactive: > 100 µM. `CCn1c(CSc2nc(-c3ccccc3)c(-c3ccccc3)[nH]2)n[nH]c1=S`: the GI50 is inactive: > 100 µM. In the case of `NN/C(=N\S(=O)(=O)c1cc(S(=O)(=O)c2ccccc2)cs1)Nc1ccc(Cl)cc1` it was inactive: 33.4 µM.

Take `Nc1ccn(CCOC(=O)c2ccccc2)c(=O)n1`: the GI50 was inactive: > 100 µM. As to `N=C(N)NCC1CCCCCCN1` (stereo not given), the GI50 was inactive: > 100 µM. For `O=C(/C=C/c1ccccc1)OCC1=C[C@@H](O)[C@@H]2C=CO[C@@H](OC3OC(CO)C(O)C(O)C3O)[C@H]12` (stereo not given in full), the GI50 is inactive: > 100 µM.

Regarding `Cc1cccc(NC(=O)Cc2nc3ccccc3s2)c1C`, the GI50 was inactive: > 100 µM. To `CCCCC(=O)OC[n+]1ccc2c(C)c3[nH]c4ccccc4c3c(C)c2c1` belongs active: 0.222 µM; to `COc1c(C)c2c(c3c1c(=O)c1ccccc1n3C)C=CC(C)(C)O2`, inactive: 25.2 µM. For `CC1(C)OC[C@@H](/C=C\CCO[Si](c2ccccc2)(c2ccccc2)C(C)(C)C)N1C(=O)c1ccccc1`, the GI50 was inactive: 20.8 µM. To `CCCCCCCCCCCCCCCCCCNc1ccn(C2OC(COP(=O)(O)OC3CC(n4cc(F)c(=O)[nH]c4=O)OC3COP(=O)(O)OCC3OC(n4ccc(N)nc4=O)C(O)C3O)C(O)C2O)c(=O)n1` (stereo not given) belongs inactive: 37.2 µM.

As to `CNNC1=NS(=O)(=O)c2cc(C(=O)OC)c(Cl)cc2S1`, the GI50 is inactive: > 10 µM.

`Cc1ccc(C(=O)N/N=C(\N=N\c2cccc(Cl)c2)c2ccc(N(CCC#N)CCC#N)cc2C)cc1`: the GI50 was inactive: > 100 µM.

As for `CC1C[C@]2(C)C(=O)N(c3ccccc3)C(=N)[C@@H]2N(C)c2ccccc21` (stereo not given in full), the GI50 is inactive: > 100 µM.

In the case of `O=c1[nH]nc(Cc2ccc(Cl)cc2)n1/N=C/c1cccs1`, the GI50 is inactive: > 100 µM. Turning to `Cc1cc(O)c2c(c1O)C(=O)C13C(=C(O)C4C(O)C1C1C(O)C3C(O)=C3C(=O)c5c(O)cc(C)c(O)c5C(=O)C341)C2=O` (stereo not given), the GI50 is active: 0.0775 µM. In the case of `COC(=O)C12C3C4(C(=O)OC)C1C1(C(=O)OC)C2C3(C(=O)OC)C41C(=O)N(C(C)C)C(C)C` (stereo not given), the GI50 was inactive: > 100 µM. As to `COc1ccc(CCNC(=O)[C@H]2CCCC[C@@H]2CCO)cc1OC`, the GI50 is inactive: > 100 µM. Consider `CCOc1ccc(NCC2CC/C(=C\c3ccc(Cl)cc3)C2=O)cc1` (stereo not given), for which the GI50 is inactive: > 100 µM. `CCc1nc(N)nc(N)c1-c1ccc(Cc2ccccc2)c([N+](=O)[O-])c1`: the GI50 is active: 0.051 µM.

Turning to `CC(C)(C)c1ccc2c(c1)OCc1n[nH]c(n1)COc1cc(C(C)(C)C)ccc1OCCOCCO2`, the GI50 was inactive: 8.3 µM.

Regarding `O=C(O)c1ccccc1Sc1ccccc1[N+](=O)[O-]`, the GI50 is inactive: > 100 µM. In the case of `CCOC(=O)CCCN` it was inactive: > 100 µM; in that of `O=C(C1OC1c1ccc(F)cc1)C12CC3CC(CC(C3)C1)C2` (stereo not given), inactive: 20.2 µM. In the case of `Cc1[nH]c2ccccc2c1C1CC(=O)NC1=O` (stereo not given), the GI50 was inactive: > 100 µM. To `CN(C)CCCNc1ccc2nnn3c4ccc(OC(=O)c5ccc([N+](=O)[O-])cc5)cc4c(=O)c1c23` belongs inactive: 5.32 µM. On to `CCCCCCCCCCCCCCCCP(=O)(O)OP(=O)(O)OCC1OC(n2ccc(N)nc2=O)C(O)C1O` (stereo not given), for which the GI50 is inactive: > 100 µM and inactive: > 62.4 µM. In the case of `COC1O[C@@H]2COC(C)(C)O[C@@H]2C(=O)N1Nc1ccc([N+](=O)[O-])cc1` (stereo not given in full) it was inactive: > 100 µM; in that of `CC(=O)NC1=C(C)C(=O)c2c(nc3n2CCC3OC(=O)c2ccccc2)C1=N` (stereo not given), inactive: 3.14 µM; in that of `CC1(Br)C(=O)NC(=O)N([C@H]2C[C@H](O)[C@@H](CO)O2)C1N=[N+]=[N-]` (stereo not given in full), inactive: > 100 µM.

For `COc1cc2c(c(OC)c1OC)-c1ccc(OC)c(=O)cc1[C@@H](N(C)C=O)CC2`, the GI50 is active: 0.0152 µM. To `CCSc1nc(-c2cccs2)nc2ccc(I)cc12` belongs inactive: 27.4 µM.
